Source: PubChem BioAssay AID1460 (National Center for Advancing Translational Sciences (NCATS), 2008)
Screen size: about 270,000 compounds; about 5,800 (2.1%) were called active. The inconclusive results got no clear call from the source; some entries with a clear call stand among them for comparison. Calls follow the shape of the dose curve; as a rule, active = well fitted inhibition curve with a large enough effect; inconclusive = small, poorly fitted or top-dose-only effect; inactive = flat fitted curve, though single readings scatter. Potencies beside an inconclusive call are fits to weak or partial responses and may not hold up.

The compounds below were run against Microtubule-associated protein tau (Homo sapiens) (UniProt P10636) (assay: qHTS for Inhibitors of Tau Fibril Formation, Thioflavin T Binding). Settings: recombinant tau K18 P301L (four-repeat tau fragment), heparin-induced fibrillization, ThT fluorescence; series mostly up to 57.4 µM.
In short: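 K18 P301L tau (15 uM + 0.24 uM Alexa 594-tagged), heparin 20 uM, NaOAc pH 7, 6 h 37 C; ThT 30 uM, 1 h RT, ex 450/em 510 nm.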
Also: nearly all actives have a fitted effect of over 55% in size.
Potency is read from the fitted curve at half-maximal effect; tags tell the direction and shape of the fitted curve.

Sequence of UniProt P10636 (P10636 whole entry, looked up, the tested form may be a part): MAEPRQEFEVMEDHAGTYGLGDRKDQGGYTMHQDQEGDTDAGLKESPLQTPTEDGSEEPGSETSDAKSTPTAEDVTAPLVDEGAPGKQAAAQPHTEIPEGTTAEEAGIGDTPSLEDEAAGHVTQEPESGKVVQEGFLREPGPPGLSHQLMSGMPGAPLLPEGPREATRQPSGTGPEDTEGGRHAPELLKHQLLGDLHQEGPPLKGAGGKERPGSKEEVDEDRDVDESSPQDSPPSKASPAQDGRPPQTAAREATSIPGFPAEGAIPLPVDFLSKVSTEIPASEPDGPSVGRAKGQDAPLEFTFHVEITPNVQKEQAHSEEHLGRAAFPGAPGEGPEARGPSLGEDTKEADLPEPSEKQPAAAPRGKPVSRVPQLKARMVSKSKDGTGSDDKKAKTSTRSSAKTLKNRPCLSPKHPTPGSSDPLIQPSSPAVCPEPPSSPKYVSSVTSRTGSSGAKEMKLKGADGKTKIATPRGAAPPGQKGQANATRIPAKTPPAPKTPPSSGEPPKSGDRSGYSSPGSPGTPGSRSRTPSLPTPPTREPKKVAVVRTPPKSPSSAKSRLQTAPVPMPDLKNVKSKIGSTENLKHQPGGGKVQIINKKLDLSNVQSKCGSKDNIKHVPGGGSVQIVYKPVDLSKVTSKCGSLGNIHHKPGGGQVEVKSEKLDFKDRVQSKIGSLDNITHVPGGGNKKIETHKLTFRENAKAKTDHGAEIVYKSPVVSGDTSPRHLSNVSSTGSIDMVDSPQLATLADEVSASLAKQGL

| Compound | Potency |
| --- | --- |
| CCc1ccccc1Nc1nc2cc(Cl)c(Cl)cc2nc1-n1nc(C)cc1C | inactive |
| CCN(CC)S(=O)(=O)c1ccc2c(c1)nc(SCC(N)=O)n2-c1ccc(OC)cc1 | inactive |
| COCCCNC(=O)CN(c1cccc(Cl)c1C)S(C)(=O)=O | inactive |
| CCOc1ccc(S(=O)(=O)NN)cc1 | inactive |
| Cn1c2ccccc2c2nnc(SCc3nnc(-c4ccccc4)o3)nc21 | inactive |
| CN1CCN(C(=O)c2ccc3c(=O)n(Cc4ccco4)c(=S)[nH]c3c2)CC1 | inactive |
| O=C(CSc1ccc2c(c1)OCCO2)NCc1ccco1 | inconclusive: 28.2 µM [inhibitor, partial curve] |
| O=C(Nc1ccccc1)/C(=C\c1cccs1)NC(=O)c1ccccc1 | inactive |
| CCCS(=O)(=O)N1CCc2cc(OC)c(OC)cc2C1 | inconclusive: 14.1 µM [inhibitor, partial curve, poor fit] |
| CCOC(=O)c1cc(C(C)(C)C)oc1CNC(=O)c1c(C)oc2c1CCCC2 | inconclusive: 25.1 µM [inhibitor, single point] |
| Cc1ccc(NC(=O)CS(=O)CC(=O)Nc2ccc(N3CCOCC3)cc2)cc1Cl (configuration not stated) | inconclusive: 3.98 µM [inhibitor, partial curve] |
| CCOCCCn1c(=N)c(C(N)=S)cc2c(=O)n3cccc(C)c3nc21 | inactive |
| Cc1occc1C(=O)NCc1ccccc1 | inactive |
| O=c1/c(=C/c2ccc(O)c([N+](=O)[O-])c2)sc2nc3ccccc3n12 | active: 2 µM |
| COc1ccc(C(=O)/C=C/Nc2ccc(NC(C)=O)cc2)cc1OC | inconclusive: 3.55 µM [inhibitor, full curve, poor fit] |
| COc1ccc(N2CCC(CNC(=O)Nc3cccc(OC)c3)C2)cc1 (configuration not stated) | inconclusive: 14.1 µM [inhibitor, partial curve] |
| COc1ccc(-c2cn3nc(N4CCCC(C(=O)NCc5ccccc5OC)C4)sc3n2)cc1 (configuration not stated) | inconclusive: 15.8 µM [inhibitor, partial curve] |
| CCOc1ccc(CCNC(=O)c2cc3sccc3n2C)cc1OCC | inconclusive: 12.6 µM [inhibitor, partial curve] |
| COc1ccc(C(=O)/C=C2\NCC3c4ccccc4CCN3C2=O)cc1 (configuration not stated) | inconclusive: 17.8 µM [inhibitor, single point] |
| CC(=O)c1ccc(NC(=O)c2ccc(-c3nc(COc4ccc(C)cc4)c(C)o3)cc2)cc1 | inactive |
| CC(=O)Oc1c2occc2cc2ccc(=O)oc12 | inconclusive: 15.8 µM [inhibitor, partial curve] |
| COc1cccc(Cn2c(NCc3ccc(C)cc3)nc3c2c(=O)n(C)c(=O)n3C)c1 | inactive |
| COc1cccc(/C=N/NC(=O)C(=O)Nc2ccccc2OC(F)(F)C(F)F)c1O | inconclusive: 14.1 µM [inhibitor, partial curve] |
| COc1cccc(OCCCOc2ccc([N+](=O)[O-])cc2Cl)c1 | inconclusive: 15.8 µM [inhibitor, single point] |

| Compound | Potency |
| --- | --- |
| COc1ccc(CNC(=O)c2ccc3c(c2)NC(=O)C(C)S3)cc1 (configuration not stated) | inconclusive: 31.6 µM [inhibitor, single point] |
| CCN1CCCc2cc(CN(CCN3CCOCC3)C(=S)Nc3cccc(Cl)c3)ccc21 | inconclusive: 2.24 µM [inhibitor, full curve] |
| O=C(O)CN1CCN(Cc2ccccc2F)C1=O | inactive |
| N#C/C(=C/c1ccco1)C(N)=S | active: 28.2 µM |
| COc1ccc(C2CC(c3ccccc3)=NN2c2ccc(S(N)(=O)=O)cc2)cc1OC (configuration not stated) | inconclusive: 10 µM [inhibitor, partial curve] |
| CC1(C)CC(=O)C2=C(C1)OC(c1cccs1)C(C#N)=C2N (configuration not stated) | inactive |
| OCCNc1nc(SCc2ccccc2)nc2sc3c(c12)CCC3 | inconclusive: 12.6 µM [inhibitor, partial curve] |
| O=C(c1ccccc1)c1ccc2nc(-c3ccc(NC(=O)c4ccccc4Br)cc3)[nH]c2c1 | inconclusive: 1.58 µM [inhibitor, partial curve] |
| O=C(c1cc(-c2ccc(Cl)c(Cl)c2)on1)N1CCCCC1 | inactive |
| O=C(Nc1ccc(Cl)cc1)Nc1ccc(N2CCOCC2)cc1 | inconclusive: 12.6 µM [inhibitor, partial curve] |
| O=C(CN1C(=O)/C(=C2\SC(=S)N(C3CCS(=O)(=O)C3)C2=O)c2ccccc21)Nc1ccccc1 (configuration not stated) | inconclusive: 20 µM [inhibitor, partial curve] |
| Cc1noc(NS(=O)(=O)c2ccc(N/C=C/C(=O)c3ccc(F)cc3)cc2)c1C | inconclusive: 14.1 µM [inhibitor, partial curve] |
| Cc1cc(C)nc(N2CCN(C(=O)c3ccc(S(=O)(=O)N4CCCCCC4)cc3)CC2)n1 | inactive |
| COC(=O)c1cc(-c2cccc(OC)c2)n[nH]1 | inconclusive: 25.1 µM [inhibitor, partial curve] |
| CCn1c(SCC(=O)N/N=C/C=C/c2ccco2)nnc1-c1ccccc1 | inconclusive: 35.5 µM [inhibitor, single point] |
| COc1cccc(OC)c1OCCCOc1ccc(C)cc1Br | inconclusive: 17.8 µM [inhibitor, partial curve] |
| COc1ccc(N2CCC(CNC(=S)Nc3ccc(C)cc3C)C2)cc1 (configuration not stated) | inconclusive: 15.8 µM [inhibitor, partial curve] |
| CN(C)/N=C/c1ccc([N+](=O)[O-])cc1[N+](=O)[O-] | inconclusive: 15.8 µM [inhibitor, partial curve] |
| C=CCn1c(C)c(C(C)=O)c(N2CCN(C(c3ccccc3)c3ccccc3)CC2)nc1=S | inactive |
| CCOc1ccc2nc(N=NC3=C(O)CC(C)(C)CC3=O)sc2c1 | active: 14.1 µM |
| Clc1cncc(Cl)c1N/N=C/c1ccccc1 | inconclusive: 12.6 µM [inhibitor, partial curve] |
| COc1cc(C)ccc1OCCn1c(-c2ccc(Cl)cc2)nc2ccccc2c1=O | inactive |
| C/C(=N\NC(=O)C1CC1)c1ccc(NC(=O)c2ccc(Br)o2)cc1 | inconclusive: 3.16 µM [inhibitor, full curve] |
